Data as given in PubChem BioAssay AID624170 (National Center for Advancing Translational Sciences (NCATS), 2012).
Out of some 410,000 compounds screened, about 850 (0.21%) were called active. The shares of active, inactive and inconclusive entries below differ from those in the screen. Calls come from the whole dose curve; as a rule, active = well fitted inhibition curve with a large enough effect; inconclusive = small, poorly fitted or top-dose-only effect, or another doubt; inactive = no such curve, though single readings can be large or run the other way. Potencies of inconclusive entries are left out as doubtful fits.

biological target: Glutaminase kidney isoform, mitochondrial (Homo sapiens) (UniProt O94925); test: qHTS for Inhibitors of Glutaminase (GLS); details: GLS enzymatic activity, qHTS titration; series mostly up to 45.5 µM; activity change, negative = inhibition: at the top concentration
Sequence of UniProt O94925 (O94925 whole entry, looked up, canonical isoform): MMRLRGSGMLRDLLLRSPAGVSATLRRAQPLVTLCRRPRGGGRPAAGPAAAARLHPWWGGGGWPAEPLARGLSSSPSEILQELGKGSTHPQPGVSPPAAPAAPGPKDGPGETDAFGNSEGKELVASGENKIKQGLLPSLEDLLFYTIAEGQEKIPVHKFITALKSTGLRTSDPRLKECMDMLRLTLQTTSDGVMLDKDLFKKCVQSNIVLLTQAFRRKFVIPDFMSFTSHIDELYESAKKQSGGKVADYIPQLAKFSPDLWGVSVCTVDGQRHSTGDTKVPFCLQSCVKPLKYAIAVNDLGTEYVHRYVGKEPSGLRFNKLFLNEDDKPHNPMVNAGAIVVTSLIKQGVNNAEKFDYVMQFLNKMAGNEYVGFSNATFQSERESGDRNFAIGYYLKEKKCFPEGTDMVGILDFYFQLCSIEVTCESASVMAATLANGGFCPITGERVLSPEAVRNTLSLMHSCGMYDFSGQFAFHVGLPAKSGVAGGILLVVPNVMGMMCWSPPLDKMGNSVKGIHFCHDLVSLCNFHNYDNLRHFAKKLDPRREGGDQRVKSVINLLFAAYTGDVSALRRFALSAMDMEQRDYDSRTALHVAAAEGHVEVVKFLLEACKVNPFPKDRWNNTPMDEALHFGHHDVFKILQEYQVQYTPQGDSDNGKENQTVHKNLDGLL
Outline: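 hKGA in 45 mM KH2PO4 (pH 8.2), 0.02% Tween-20 with compound, then 1mM L-Glutamine (stock as added) plus glutamate oxidase/HRP/Amplex red coupling mix. Fluorescence read initially and after 30 min at RT; signal change reflects glutamate formation.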
% is set by controls: 0 for no effect and ±100 for the full control effect; potency is the fitted concentration of half-maximal effect; tags give direction and shape of the fitted curve.

Compound	Potency	activity change, negative = inhibition
COc1cc(CO)ccc1OCc1nnnn1-c1ccc(C)cc1	inconclusive [inhibitor, single point]	
O=C(CN1CCN(c2ccccc2O)CC1)NC(=O)NC1CCCC1	active: 2.82 µM	
Cc1ccc(NC(=O)Cn2nc([N+](=O)[O-])c(Br)c2C)cc1C	inconclusive [inhibitor, single point]	
CC1(C)S[C@@H]2[C@H](NC(=O)COc3ccccc3)C(=O)N2C1C(=O)OCc1ccccc1 (stereo partly drawn)		inactive: 4.77%
COc1c(/C=C2\SC(=Nc3ccccc3Cl)NC2=O)cccc1[N+](=O)[O-]		inactive: 5.86%
CCN(c1ccccc1)c1cc2ccccc2c(=O)[nH]1	inconclusive [inhibitor, single point]	
Cc1cc(C(=O)N/N=C2\CCCC(=O)C2)c(C)n1-c1ccccc1	inconclusive [inhibitor, single point]	
CCN(CC)CCNC(=O)c1ccc2c(c1)NC(=O)C(CS(=O)(=O)Cc1cccc(Br)c1)N2 (stereo not drawn)	inconclusive [inhibitor, single point]	
COc1ccc(N2C(C)=CS/C2=C(/C#N)c2nnc(N3CCOCC3)n2-c2ccccc2)cc1	inconclusive [inhibitor, single point]	
COc1cc(/C=C(\C#N)C(=O)Nc2cccc(C(=O)O)c2)ccc1OCc1ccc(Cl)cc1	inconclusive [inhibitor, single point]	
O=S(=O)(Nc1ccccc1N1CCCCC1)c1ccc(F)cc1	inconclusive [inhibitor, single point]	
CC(C)OC(=O)c1cn(-c2ccccc2)nc1-c1ccco1		inactive: 3.36%
O=C(c1ccc(NC(=O)C(c2ccccc2)c2ccccc2)cc1)c1ccc(C(=O)O)c(C(=O)O)c1	inconclusive [inhibitor, single point]	
COc1ccc(C(=O)COC(=O)CN2C(=O)C3C4CCC(C4)C3C2=O)cc1 (stereo not drawn)	inconclusive [inhibitor, single point]	
COc1ccc(O)c(CN2CCN(CCc3ccccc3)C(CCO)C2)c1 (stereo not drawn)	inconclusive [inhibitor, partial curve, poor fit]	
O=C(Oc1c(-c2ccco2)oc2ccccc2c1=O)c1cccnc1	inconclusive [inhibitor, partial curve, poor fit]	
CN(C)c1ccsc1C(=O)NNS(=O)(=O)c1ccc(Cl)cc1	inconclusive [inhibitor, partial curve]	
Cn1c(N=NC(=O)c2ccccc2)c(O)c2ccccc21	inconclusive [inhibitor, single point]	
